# Source: PubChem BioAssay AID588855 (National Center for Advancing Translational Sciences (NCATS), 2011)
# About 5,000 (1.2%) of roughly 410,000 compounds were called active. Inconclusive results, whose numbers are uncertain, are shown with a selection of clear calls. The call rests on the fitted dose curve; in most records, active means well fitted inhibition curve with a large enough effect; inconclusive means small, poorly fitted or top-dose-only effect; inactive means no such curve, though single readings can be large or run the other way. Potencies beside an inconclusive call are fits to weak or partial responses and may not hold up.
# Assay: qHTS for Inhibitors of TGF-b; further: nearly all actives have a fitted effect of over 65% in size
# Conditions: HepG2 CAGA-GFP TGF-b/SMAD3 reporter, GFP fluorescence, 18 h, TGF-beta stimulated, 500 pg/mL final; series mostly up to 46.1 µM
# Summary of the method: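 First, reporter cells (HEPG2 CAGA-GFP) rested 2 h at 37 degrees C. Next, compounds were pinned in and TGF-beta added to 500 pg/mL final. After 18 h, GFP was imaged per cell and summed per well.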
# Potency means the concentration at half of the fitted maximal effect; tags describe the fitted curve by direction and shape.
row,SMILES,Potency
1,NC(N)=N/N=C(\N=Nc1ccccc1)c1cccc2cccnc12,"inconclusive: 22.4 µM [inhibitor, single point]"
2,COc1ccc(-c2nc(CS(=O)(=O)CC(=O)NC3CCC(C)CC3)c(C)o2)cc1 (stereo not drawn),"inconclusive: 22.4 µM [inhibitor, partial curve, poor fit]"
3,COc1cc(/C=C(/C#N)C(=O)NCCc2c[nH]c3ccccc23)ccc1OCc1ccccc1F,inactive
4,C[C@H]1CN([C@@H](C)CO)C(=O)c2cc(NS(=O)(=O)c3ccc(Cl)cc3)ccc2O[C@@H]1CN(C)CC1CCCCC1,"inconclusive: 20 µM [inhibitor, single point]"
5,CCOC(=O)/C(=N/Nc1ccccc1)N1CCCc2ccccc21,inactive
6,O=C(NN=C1c2ccccc2-c2ccccc21)c1ccccc1Br,"inconclusive: 35.5 µM [inhibitor, single point]"
7,CCNc1nc(NCC)n2c(SCC(=O)Nc3cc(OC)ccc3OC)nnc2n1,inactive
8,COc1cccc(-c2sc3ccc(OC)cc3c2-c2ccc(OCCN(C)C)cc2)c1,"inconclusive: 35.5 µM [inhibitor, single point]"
9,CCCN1CCN(c2ncnc3sc(C(=O)Nc4ccc(C(C)C)cc4)c(C)c23)CC1,"inconclusive: 2.51 µM [inhibitor, full curve]"
10,Cc1cc(C)n(-c2nc(Nc3ccccc3C(F)(F)F)nc(-n3nc(C)cc3C)n2)n1,"inconclusive: 35.5 µM [inhibitor, single point]"
11,COc1cc(C(=O)OCC(=O)NCCCc2ccccc2)ccc1OCC(C)C,"inconclusive: 5.62 µM [inhibitor, single point]"
12,COc1ccc(N(CC(=O)Nc2cccnc2)S(=O)(=O)c2ccccc2)cc1OC,"inconclusive: 20 µM [inhibitor, single point]"
13,CCOC(=O)/C(=C/Nc1ccc(F)c(F)c1)[N+](=O)[O-],inactive
14,CN(Cc1ccc(F)cc1)C(=O)c1cccc(S(=O)(=O)N2CCN(c3ccc(F)cc3)CC2)c1,"inconclusive: 17.8 µM [inhibitor, single point]"
15,CCOC(=O)C1=CCN(S(=O)(=O)c2ccc(C)cc2)C1c1ccc(C(C)C)cc1 (stereo not drawn),"inconclusive: 35.5 µM [inhibitor, single point]"
16,O=C1c2ccccc2NC(c2ccc(Cl)cc2Cl)N1Cc1ccccc1 (stereo not drawn),"inconclusive: 20 µM [inhibitor, single point]"
17,COc1ccccc1C(=O)Nc1ccccc1OCc1cc(=O)n2c(C)csc2n1,inactive
18,COc1ccc(OCCN2CCCC2)cc1Nc1nnc(Cl)c(Nc2ccccc2S(C)(=O)=O)n1,inactive
